The target in test [1] is T1, mCPSF30-L (CPSF30-L with Gly to Arg at the 126th amino acid), BD fusion for yeast two-hybrid (Arabidopsis thaliana) (UniProt A9LNK9).
T1 sequence: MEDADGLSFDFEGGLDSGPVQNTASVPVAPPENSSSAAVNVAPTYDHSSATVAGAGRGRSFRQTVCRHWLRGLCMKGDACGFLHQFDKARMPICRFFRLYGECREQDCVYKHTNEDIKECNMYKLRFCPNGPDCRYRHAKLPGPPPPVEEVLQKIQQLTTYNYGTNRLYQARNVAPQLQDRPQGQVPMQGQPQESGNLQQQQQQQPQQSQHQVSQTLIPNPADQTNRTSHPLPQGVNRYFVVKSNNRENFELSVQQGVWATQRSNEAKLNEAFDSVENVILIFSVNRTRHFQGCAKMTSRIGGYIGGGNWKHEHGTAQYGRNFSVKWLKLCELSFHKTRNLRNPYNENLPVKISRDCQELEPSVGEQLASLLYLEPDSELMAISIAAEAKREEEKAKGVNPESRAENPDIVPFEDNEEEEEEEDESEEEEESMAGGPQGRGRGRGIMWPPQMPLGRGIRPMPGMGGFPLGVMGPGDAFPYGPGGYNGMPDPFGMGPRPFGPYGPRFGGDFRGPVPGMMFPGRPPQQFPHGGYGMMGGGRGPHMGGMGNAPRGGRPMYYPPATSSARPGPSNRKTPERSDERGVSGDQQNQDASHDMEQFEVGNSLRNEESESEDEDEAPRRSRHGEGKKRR
The experiment in a line: two-hybrid; yeast two-hybrid (Clontech); CPSF30-L or mCPSF30-L in pGBKT7 (BD) as bait, FIP1, FIP1-S1 or FIP1-S2 in pGADT7 (AD); interaction tested on QDO (SD medium lacking leucine, tryptophan, histidine and adenine).

Test [2] concerns the target T2, cleavage and polyadenylation specificity factor 30-L (CPSF30-L), BD fusion for yeast two-hybrid (Arabidopsis thaliana) (UniProt A9LNK9).
T2 sequence: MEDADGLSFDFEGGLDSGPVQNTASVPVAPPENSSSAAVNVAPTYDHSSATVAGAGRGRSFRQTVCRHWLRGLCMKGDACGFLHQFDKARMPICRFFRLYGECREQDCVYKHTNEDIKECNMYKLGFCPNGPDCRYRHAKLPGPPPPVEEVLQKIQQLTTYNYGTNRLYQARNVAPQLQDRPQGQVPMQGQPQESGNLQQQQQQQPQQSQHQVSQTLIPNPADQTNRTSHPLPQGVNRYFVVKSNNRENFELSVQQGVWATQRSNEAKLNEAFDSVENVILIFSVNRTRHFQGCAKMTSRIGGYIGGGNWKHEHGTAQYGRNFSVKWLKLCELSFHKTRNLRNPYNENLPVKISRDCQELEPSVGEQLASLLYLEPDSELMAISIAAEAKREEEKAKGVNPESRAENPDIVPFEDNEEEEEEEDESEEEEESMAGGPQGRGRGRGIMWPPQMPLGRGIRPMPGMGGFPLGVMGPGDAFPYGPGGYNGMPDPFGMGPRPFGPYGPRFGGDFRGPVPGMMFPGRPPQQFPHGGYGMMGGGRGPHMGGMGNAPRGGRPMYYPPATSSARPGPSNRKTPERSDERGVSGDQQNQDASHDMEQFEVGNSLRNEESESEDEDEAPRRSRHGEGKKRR
Described as above.

Test [3] deals with T3, GST-CPSF30-L (Arabidopsis thaliana) (UniProt A9LNK9).
T3 sequence: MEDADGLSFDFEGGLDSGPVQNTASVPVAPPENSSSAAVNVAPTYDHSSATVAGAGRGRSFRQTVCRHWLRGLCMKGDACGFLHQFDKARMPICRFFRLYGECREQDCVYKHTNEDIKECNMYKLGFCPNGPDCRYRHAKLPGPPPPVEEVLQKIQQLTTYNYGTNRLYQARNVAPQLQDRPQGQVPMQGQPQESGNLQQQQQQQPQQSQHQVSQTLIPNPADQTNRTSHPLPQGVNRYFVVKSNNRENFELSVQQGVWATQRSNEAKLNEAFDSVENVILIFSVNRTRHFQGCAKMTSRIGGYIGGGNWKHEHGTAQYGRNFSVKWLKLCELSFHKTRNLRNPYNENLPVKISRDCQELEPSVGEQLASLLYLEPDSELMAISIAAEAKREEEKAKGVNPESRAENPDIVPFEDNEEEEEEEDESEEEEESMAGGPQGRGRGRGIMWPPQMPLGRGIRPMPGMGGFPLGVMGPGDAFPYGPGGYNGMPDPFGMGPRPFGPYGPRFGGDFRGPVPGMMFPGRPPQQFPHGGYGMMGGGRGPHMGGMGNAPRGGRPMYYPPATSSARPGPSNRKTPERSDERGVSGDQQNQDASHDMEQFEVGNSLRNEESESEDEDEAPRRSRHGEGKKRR
Kind of test: pull-down; GST-tagged bait immobilised on glutathione agarose beads (Thermo GST protein interaction pull-down kit), His-tagged prey, both made in E. coli BL21; eluate blotted with anti-His antibody.

For test [4], the target named is T4, GST-mCPSF30-L (Arabidopsis thaliana) (UniProt A9LNK9).
T4 sequence: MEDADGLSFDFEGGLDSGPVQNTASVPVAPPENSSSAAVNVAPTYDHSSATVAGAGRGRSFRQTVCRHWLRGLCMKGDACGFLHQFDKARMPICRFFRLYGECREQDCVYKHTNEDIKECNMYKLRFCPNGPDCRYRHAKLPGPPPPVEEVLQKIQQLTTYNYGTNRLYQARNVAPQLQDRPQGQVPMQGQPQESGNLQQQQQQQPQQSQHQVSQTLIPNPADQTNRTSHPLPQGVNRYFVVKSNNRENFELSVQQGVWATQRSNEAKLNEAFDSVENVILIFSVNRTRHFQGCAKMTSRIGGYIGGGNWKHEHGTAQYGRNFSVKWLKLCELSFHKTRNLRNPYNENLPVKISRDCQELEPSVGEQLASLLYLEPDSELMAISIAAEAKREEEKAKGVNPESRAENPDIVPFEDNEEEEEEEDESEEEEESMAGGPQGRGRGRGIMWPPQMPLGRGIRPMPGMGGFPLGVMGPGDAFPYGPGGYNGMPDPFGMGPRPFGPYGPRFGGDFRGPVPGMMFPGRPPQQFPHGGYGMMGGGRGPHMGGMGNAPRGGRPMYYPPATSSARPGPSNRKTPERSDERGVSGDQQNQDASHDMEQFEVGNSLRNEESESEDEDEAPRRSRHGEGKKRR
Described as above.

These are yes or no findings as the source states them, for the method shown. For some of these results: In cells and extracts the contact can be indirect. Some results given as binding are weak or reduced against the parent protein; the word gives no strength. Tags and fused reporters may be left off the sequences shown.

B1: FIP1 (factor interacting with poly(A) polymerase 1), AD fusion for yeast two-hybrid (protein, UniProt F4KDH9 1-1196)
chain: MEEDDEFGDLYSDVLQPFQPPVVLPPPPPLPHRSIDLNLRSQDQDVSEPNSAPISRVSDNDAVKLSTQDATRQAIVDGGGDDKDMSFDIEEPDADSTPTIPGLFVTGALPGLATDRGVSQVTTRIEQQVGGGGDGGYGGQGEGDDWDSDSEDDLQIVLNDSSRNVMIGGADRRSRMGDNEDDDDEDDEDPLVIVADTDPNQPMEEQMWGEDGLQGIEGDGKDGGEAGKGSGPGGATGPPKAGYSSHGYHPFHSQFKYVRPGAAPIPGGAASVGGPSSGQVRPPANLGPMAGRGRGDWRPLGMRNASAAQKGFHQPWGSNTAGRGLDFTLPSHKTIFEVDIDSFEEKPWRYPGVEMTDYFNFGLNEESWKDYCKQLDQHRIQTTMQSRIRVYESGRTDQGYDPDLPPELAAATGAQGVPVDSSNLVKPDSVQGDSAKVPANVRPTLPPGRPIPVETGSGERLPSIDTRAPRMRDLDAIIEIVCQDSHEDEPSGENGTDQADSSLPGENVPVETSYVNNKRPDTESAEHSPAQDEPHKNLLKKQDDEISRSTDSGQSFRSSSPVGDRGTRSSSVDREDVGGEAGKDAEMGEELKMSFTSPQSAVQEDDGGESKTERSSESSKARSGSHRDFQQEEDVIQDKHSSRPANNRKQYDNNAPHQSRKNQDRGKEMERTRAASKGGRENSNPHMELDSTYIYSIASREDFDKRKERDVDGAVWRRKEDDPYSRRGGDEGSRKRDREDDPGFRQRGKMRENEIRSKDDQVPSRKHMDDAGMRNIYEPDDHINKRRKDEEYLRRSRPEKNEISYGQRESMSRVKRERDDRLEHQKRDVQHKIRDDFDDHGSLRQRDDIYMQRDGNERLRERDVLDKLKLPHEDGISARGRERQVAVRGHRGSEDRSSRMKDEYKASDKEHVTKDTLRHAKQTKRRDYPGEESSSHHRGHEDFSARTDNIVNNEKKPRQERTGAKIDKFIDTLDGQRLQDRKHKDSRRKIKEQREGTESLSKQGEQNGSSVVTGSKGTNDARNCRSEIPHQPNTAKRHKENASSGDEIHDSKRGRTKLERWASHKEREDAVSAKSSSISSKLEEKENNTNGRLSEPVHGSIGKSRDVTEEKIGHDLADTKDGSEKGPGDRHLDTVEKLKKRSERFKLPMPTEKDTTGVKKMESETLPSAKIEGPVDSEGEYVWDERSCVRIGREYA
On to B1, for which the values for the binding result in test [1] and in test [2] were “no binding” and “binds”, respectively.

B2: His-FIP1 (protein, UniProt F4KDH9 1-1196)
chain: MEEDDEFGDLYSDVLQPFQPPVVLPPPPPLPHRSIDLNLRSQDQDVSEPNSAPISRVSDNDAVKLSTQDATRQAIVDGGGDDKDMSFDIEEPDADSTPTIPGLFVTGALPGLATDRGVSQVTTRIEQQVGGGGDGGYGGQGEGDDWDSDSEDDLQIVLNDSSRNVMIGGADRRSRMGDNEDDDDEDDEDPLVIVADTDPNQPMEEQMWGEDGLQGIEGDGKDGGEAGKGSGPGGATGPPKAGYSSHGYHPFHSQFKYVRPGAAPIPGGAASVGGPSSGQVRPPANLGPMAGRGRGDWRPLGMRNASAAQKGFHQPWGSNTAGRGLDFTLPSHKTIFEVDIDSFEEKPWRYPGVEMTDYFNFGLNEESWKDYCKQLDQHRIQTTMQSRIRVYESGRTDQGYDPDLPPELAAATGAQGVPVDSSNLVKPDSVQGDSAKVPANVRPTLPPGRPIPVETGSGERLPSIDTRAPRMRDLDAIIEIVCQDSHEDEPSGENGTDQADSSLPGENVPVETSYVNNKRPDTESAEHSPAQDEPHKNLLKKQDDEISRSTDSGQSFRSSSPVGDRGTRSSSVDREDVGGEAGKDAEMGEELKMSFTSPQSAVQEDDGGESKTERSSESSKARSGSHRDFQQEEDVIQDKHSSRPANNRKQYDNNAPHQSRKNQDRGKEMERTRAASKGGRENSNPHMELDSTYIYSIASREDFDKRKERDVDGAVWRRKEDDPYSRRGGDEGSRKRDREDDPGFRQRGKMRENEIRSKDDQVPSRKHMDDAGMRNIYEPDDHINKRRKDEEYLRRSRPEKNEISYGQRESMSRVKRERDDRLEHQKRDVQHKIRDDFDDHGSLRQRDDIYMQRDGNERLRERDVLDKLKLPHEDGISARGRERQVAVRGHRGSEDRSSRMKDEYKASDKEHVTKDTLRHAKQTKRRDYPGEESSSHHRGHEDFSARTDNIVNNEKKPRQERTGAKIDKFIDTLDGQRLQDRKHKDSRRKIKEQREGTESLSKQGEQNGSSVVTGSKGTNDARNCRSEIPHQPNTAKRHKENASSGDEIHDSKRGRTKLERWASHKEREDAVSAKSSSISSKLEEKENNTNGRLSEPVHGSIGKSRDVTEEKIGHDLADTKDGSEKGPGDRHLDTVEKLKKRSERFKLPMPTEKDTTGVKKMESETLPSAKIEGPVDSEGEYVWDERSCVRIGREYA
Regarding B2, the binding entry is recorded as “binds” in test [3] and “no binding” in test [4].

The values above are taken from PMC5945890.
